Molecules are shown by their SMILES. The list shows a part of the results.

The test deals with T1, C. trachomatis L2/434/Bu expressing GFP (CTL2-GFP).
T1 construct: L2/434/Bu GFP intracellular growth in HeLa cells
Also on record: species or system HeLa; C. trachomatis total inclusion area by high-content imaging, normalised to DMSO. The following applies: total inclusion area; 28.5 h, 10 µM; inhibitor. The procedure, abridged: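 High-content imaging followed the bulk GFP/resorufin measurement: fixed, Hoechst-stained cells were scored for GFP inclusions and host nuclei per well. Total inclusion area and count served as growth proxies, nuclei number as the viability proxy. MIC calculation matched the bulk assay.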
Turning to `O=C1CCC[C@]2(CN(C(=O)C3CC3)C[C@H]2c2ccccc2F)N1` [CBK283357], the “% of control remaining” value amounted to 111.726.

Take `COc1cc(-c2nnc(CSCc3n[nH]c(=O)[nH]3)o2)cc(OC)c1OC` [CBK299814]: the “% of control remaining” value was 120.969.

For the compound `OCC1CCCN(Cc2c(C3CCCC3)[nH]c3ncccc23)C1` (centres unmarked) [CBK285332], the “% of control remaining” value was determined as 121.145.

`COCCn1c(SCc2c(C)nc3ccccn23)nc(C)c1C` [CBK305212]: the “% of control remaining” value is 102.676.

Turning to `O=C(c1ccccc1Cl)N1CCN(c2ccc([N+](=O)[O-])c(NCc3cccnc3)c2)CC1` [CBK265866], the “% of control remaining” value turned out to be 65.1097.

Regarding `O=C(N/N=C/c1ccc([N+](=O)[O-])cc1)c1ccc(O)cc1O` [CBK261591], the “% of control remaining” value is reported as 93.9699.

Regarding `CC(C)c1ccc(S(=O)(=O)NC(C#N)c2ccccc2)cc1` (centres unmarked) [CBK044403], the “% of control remaining” value amounted to 103.995.

In the case of `O=C(Nc1ccccc1)N(Cc1nc(-c2ccccc2)no1)C1CCCCC1` [CBK269830], the “% of control remaining” value was 111.84.

Regarding `CC(=O)Nc1ccc2nc(NC(=O)c3ccc(C)cc3)sc2c1` [CBK287304], the “% of control remaining” value is listed as 112.672.

For `CC(C)[C@@H](CO)n1c(=O)[nH]c2ncc(-c3ccco3)nc21` [CBK065018], the “% of control remaining” value worked out at 85.1309.

Turning to `CCCCSc1sc(C(=O)O)c(-c2ccc(Cl)cc2)c1C#N` [CBK122551], the “% of control remaining” value stood at 53.3812.

In the case of `CCOC(=O)c1c(NC(=O)CCC(=O)O)sc2c1CCCCC2` [CBK262648], the “% of control remaining” value is listed as 101.656.

Regarding `CS(=O)(=O)Nc1cc(-c2noc([C@@H]3CCCN3Cc3ccccn3)n2)ccn1` [CBK288885], the “% of control remaining” value is reported as 107.372.

For `CCC(CC)C(=O)N1CC[C@H]2NC(=O)N(Cc3ccccc3)C(=O)[C@H]21` [CBK289291], the “% of control remaining” value was found to be 107.723.

As to `O=C(O)c1cn(C2CC2)c2cc(N3CCN(C(=O)Cc4ccsc4)CC3)c(F)cc2c1=O` [CBK297142], the “% of control remaining” value worked out at 12.1921.

For `Cc1ccsc1C(=O)N1CCC(c2nn(C)c3ncccc23)CC1` [CBK285102], the “% of control remaining” value was determined as 91.9228.

For `O=C(CSC1=NC(=O)C(c2ccccc2)C(=O)N1)NC1CCCCC1` (centres unmarked) [CBK263804], the “% of control remaining” value is 116.297.

Consider `COc1ccc2c3c1CCC(C)(C)C3COC2CCN1CCN(c2ccc(F)cc2)CC1` (centres unmarked) [CBK024047C], for which the “% of control remaining” value worked out at 40.3048.

On to `Cc1ccc(-c2nccnc2OCCc2c[nH]c3ccccc23)cc1C` [CBK106850], for which the “% of control remaining” value was 90.9019.

`O=C(c1ccncc1)N1C2CCC1CC(c1ccc(F)cc1)C2` (centres unmarked) [CBK283763]: the “% of control remaining” value is given as 93.8569.

Take `O=S(=O)(NCc1ccccc1)c1cccc2nonc12` [CBK265692]: the “% of control remaining” value came to 94.1392.

Take `O=C(Nc1ccccc1[N+](=O)[O-])c1cc(S(=O)(=O)NCc2ccco2)ccc1Cl` [CBK264557]: the “% of control remaining” value stood at 100.22.

As to `CC(CCCC(C)(C)O)NCCO` (centres unmarked) [CBK262340], the “% of control remaining” value is on record as 77.2631.

In the case of `COc1ccc(CCNC(=O)N2CCC(C(=O)O)CC2)cc1` [CBK156073], the “% of control remaining” value was 74.683.

On to `CC(C)(CNC(=O)c1ccc(=O)n(CC(=O)Nc2ccc(F)cc2)c1)c1cccc(F)c1` [CBK285955], for which the “% of control remaining” value came to 102.347.

Turning to `COc1cccc2ncn(CCNS(C)(=O)=O)c(=O)c12` [CBK306583], the “% of control remaining” value is 52.5277.

Regarding `c1ccc(-c2cnc3c(N4CCCC4)nc(-c4cccnc4)cn23)cc1` [CBK092245], the “% of control remaining” value turned out to be 102.872.

`O=C(CCN1CCN(CCO)CC1)Nc1ccc(Cl)cc1` [CBK033787]: the “% of control remaining” value was determined as 103.367.

As for `CN(C)c1ccc(Nc2cc(-c3ccc(OCc4ccccc4)cc3)ncn2)cc1` [CBK090941], the “% of control remaining” value is 92.7065.

As to `CC(Oc1ccccc1)C(=O)NCCN1CCOCC1` (centres unmarked) [CBK263812], the “% of control remaining” value was 48.5372.

For the compound `N#CC(C(=O)NC1CCCCC1)C(=O)c1nn(-c2ccccc2)c2c1CSc1ccccc1-2` (centres unmarked) [CBK017690], the “% of control remaining” value came to 103.397.

`Cc1ccc(C(=O)C(OC(=O)CN2C(=O)c3cccc([N+](=O)[O-])c3C2=O)c2ccccc2)cc1C` (centres unmarked) [CBK265519]: the “% of control remaining” value was 106.577.

As to `CC(NC(=O)C1CCN(Cc2nccs2)CC1)c1ccc(F)cc1` (centres unmarked) [CBK148056], the “% of control remaining” value was found to be 106.595.

Turning to `CC(C)NC(=O)Cn1c(=O)n(Cc2cccs2)c2ncccc21` [CBK283900], the “% of control remaining” value was 99.4493.

In the case of `O=C(CC(Nc1ccc2ccccc2c1)c1ccncc1)c1ccc(Br)cc1` (centres unmarked) [CBK262209], the “% of control remaining” value was 110.126.

Consider `COCC(=O)N1C[C@@H](c2ccc(F)c(F)c2)[C@@]2(CCCC(=O)N2)C1` [CBK283358], for which the “% of control remaining” value was found to be 68.5871.

For `Oc1ccc(-c2nccnc2NCCc2ccncc2)cc1` [CBK037302], the “% of control remaining” value came to 122.475.

As for `CCn1ncc2c(C(=O)NC(C)COC)cc(-c3cccs3)nc21` (centres unmarked) [CBK304955], the “% of control remaining” value is on record as 84.6022.

Regarding `O=C(O)c1c[nH]nc1-c1ccc(Br)cc1` [CBK266368], the “% of control remaining” value is given as 126.256.

For the compound `CCNC(=O)CN1CCN(C(=O)C(C)(C)c2cccc(C#N)c2)CC1` [CBK306141], the “% of control remaining” value is 59.2695.

Turning to `CCOC(=O)C1CCCCN1Cc1ccc(O)c(OC)c1` (centres unmarked) [CBK261541], the “% of control remaining” value is given as 87.3362.

For `COc1cccc(C2(NC(=O)Cn3nc(C)cc3C)CCCC2)c1` [CBK283648], the “% of control remaining” value turned out to be 81.0181.

Regarding `CC(=O)N1CCc2ccc(S(=O)(=O)n3ccc4c(N5CCNCC5)cccc43)cc2C1` [CBK001632C], the “% of control remaining” value was found to be 71.3869.

Consider `COc1ccc(OCC(=O)N2CCN(C3CCC(c4ccccc4)CC3)CC2)cc1` (centres unmarked) [CBK263459], for which the “% of control remaining” value worked out at 80.9939.

Regarding `Cc1ccc(S(=O)(=O)NCCOc2ccccc2)c(C)c1NS(C)(=O)=O` [CBK268210], the “% of control remaining” value is recorded as 103.279.

For `c1ccc(C(Oc2nccnc2-c2ccc3c(c2)OCO3)c2ccccc2)cc1` [CBK106707], the “% of control remaining” value was 88.9442.

For `COc1cc2c(cc1-c1nccn1CC1CN(C(C)=O)CCO1)CCC2` (centres unmarked) [CBK306850], the “% of control remaining” value is 107.289.

As to `O=C(c1ccc(F)cc1)N1C[C@@H](c2ccsc2)[C@@H]2CN(Cc3cccc(F)c3)CC[C@@H]21` [CBK285640], the “% of control remaining” value is reported as 106.185.

Regarding `O=C(CC1NC(=O)N(C2CCCCC2)C1=O)Nc1cccc(CCc2ccncc2)c1` (centres unmarked) [CBK285563], the “% of control remaining” value came out at 114.03.

As to `Cc1cc(C)cc(NC(=O)C2CC(=O)N=C(NCc3ccccc3)N2)c1` (centres unmarked) [CBK269054], the “% of control remaining” value is listed as 109.366.

(Values after paper PMC12040169 (PLOS Biology, 2025).)
